Results as given in PubChem BioAssay AID1476 (National Center for Advancing Translational Sciences (NCATS), 2009).
About 4,500 (2.2%) of roughly 200,000 compounds were called active. The shares of active, inactive and inconclusive entries below differ from those in the screen. The call rests on the fitted dose curve; in most records, active means well fitted inhibition curve with a large enough effect; inconclusive means small, poorly fitted or top-dose-only effect, or effect the other way; inactive means flat fitted curve, though single readings scatter. A potency beside an inconclusive call is a rough fit, not a confirmed value.

molecular target: Cruzipain (Trypanosoma cruzi) (UniProt P25779); experiment: qHTS Assay for Promiscuous and Specific Inhibitors of Cruzain (without detergent); conditions: purified cruzain, Z-FR-AMC fluorescence, no detergent; further: nearly all actives have a fitted effect of over 40% in size;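 on max response, negative = inhibition: plate controls were enzyme without inhibitor for no effect and buffer without enzyme for full effect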
Sequence of UniProt P25779 (P25779 whole entry, looked up): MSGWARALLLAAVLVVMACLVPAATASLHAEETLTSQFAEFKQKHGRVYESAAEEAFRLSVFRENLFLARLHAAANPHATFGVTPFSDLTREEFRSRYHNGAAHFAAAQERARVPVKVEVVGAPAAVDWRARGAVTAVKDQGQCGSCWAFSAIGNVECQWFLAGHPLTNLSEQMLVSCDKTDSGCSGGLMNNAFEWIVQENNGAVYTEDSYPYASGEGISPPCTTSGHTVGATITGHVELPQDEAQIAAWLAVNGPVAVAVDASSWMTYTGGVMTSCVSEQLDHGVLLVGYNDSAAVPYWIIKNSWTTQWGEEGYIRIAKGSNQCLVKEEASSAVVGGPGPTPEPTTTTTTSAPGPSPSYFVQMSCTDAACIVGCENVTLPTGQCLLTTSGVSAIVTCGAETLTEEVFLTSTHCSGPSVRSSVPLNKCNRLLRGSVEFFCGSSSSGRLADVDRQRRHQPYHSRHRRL
How it was run: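 Detergent-free condition (0.00005% Triton X-100) in acetate buffer pH 5.5 with DTT. 1.5 nM enzyme and compound were pre-mixed 15 min, then 2 uM Z-FR-AMC substrate added; reaction progress from fluorescence change between first and third reads (60 s).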
Potency means the concentration at half of the fitted maximal effect; tags describe the fitted curve by direction and shape.

SMILES | Potency | max response, negative = inhibition
Cc1cccc(-c2nsc(SCC(=O)Nc3nccs3)n2)c1 | inconclusive: 31.6 µM [inhibitor, single point] | 
CCOC(=O)C1CCCN(C(=O)C2CCN(S(=O)(=O)c3c(C)noc3/C=C/c3ccccc3F)CC2)C1 (centres undefined) | inconclusive: 6.31 µM [activator, single point] | 
COc1ccccc1NC(=O)CCn1nc(-c2ccccc2OC)c2c(C)cc(C)nc21 | inconclusive: 39.8 µM [activator, single point] | 
Clc1cccc(/C=N\Nc2nccs2)c1 | active: 15.8 µM | 
Cc1cc(C)c(C)c(OCC(=O)Nc2ccc(S(=O)(=O)Nc3nc(C)cc(C)n3)cc2)c1 | inconclusive: 39.8 µM [activator, single point] | 
COc1ccc(NC(=O)CSc2nc3ccccc3nc2N2CCC(C)CC2)cc1 | inconclusive: 39.8 µM [inhibitor, single point] | 
COc1ccc(N2CCN(c3oc(COc4ccc(Cl)cc4Cl)nc3C#N)CC2)cc1 | inconclusive: 39.8 µM [inhibitor, single point] | 
CCOC(=O)/C(C#N)=C/c1cc2ccccc2nc1N1CCOCC1 | inconclusive: 39.8 µM [activator, single point] | 
COc1ccc2cc3cc(C(=O)NCCCN4CCOCC4)oc3nc2c1 | inconclusive: 39.8 µM [inhibitor, single point] | 
CCN=C1NN=C(c2cc(C)n(Cc3ccco3)c2C)CS1 | inconclusive: 39.8 µM [inhibitor, single point] | 
COc1ccc2c(c1)-c1nc(NC(=O)c3ccc(OC)c(Br)c3)sc1CC2 | active: 10 µM | 
Cc1cccc(-c2noc(CN(C3CCCCC3)S(=O)(=O)c3ccc(F)cc3)n2)c1 |  | inactive: -6.87%
COC(=O)[C@@]1(Cc2ccccc2)[C@H]2c3cc(C(=O)N(C)C)n(Cc4c(CO)[nH]cc(C)c4=O)c3C[C@H]2CN1C(=O)c1ccccc1 | inconclusive: 25.1 µM [activator, partial curve] | 
Cc1ccc2cc3c(N)c(C(=O)N4CC(=O)Nc5ccccc54)sc3nc2c1 | inconclusive: 12.6 µM [inhibitor, partial curve] | 
CCOc1cc(/C=N/NC(=O)CNc2ccc(C)cc2)ccc1OC(=O)c1ccccc1 | active: 10 µM | 
Cc1ccc(C2c3[nH]c4ccccc4c3CCN2C(=O)c2ccccc2Br)cc1 (centres undefined) | inconclusive: 39.8 µM [inhibitor, single point] | 
Cc1ccc(C(=O)NCC(=O)OCC(=O)NC2CCS(=O)(=O)C2)cc1C (centres undefined) | active: 25.1 µM | 
C[C@@H]1OC(OC2CC[C@@]3(C)C(CC[C@@]4(C)C3CC=C3C5CC(C)(C)CC[C@]5(C(=O)OC5OCC(O)[C@@H](O)[C@@H]5OC5O[C@@H](C)[C@H](O[C@H]6OC(CO)C(O)C(O)C6O)C(O)C5O)C(O)C[C@@]34C)C2(C)C)C(O)C(O)[C@H]1OC1OCC(O)C(O)[C@H]1O (some centres undefined) | inconclusive: 3.16 µM [activator, single point] | 
COc1cc(/C=C/c2nc(C#N)c(N3CCCCC3)o2)cc(OC)c1OC |  | inactive: 21.6%
CCC(C(=O)N1CCN(c2ccccc2OC)CC1)c1ccccc1 (centres undefined) | inconclusive: 39.8 µM [activator, single point] | 

SMILES | Potency | max response, negative = inhibition
COc1cc(/C=N/NC(=O)COc2ccc(C)cc2)ccc1OC(=O)c1cccs1 | inconclusive: 25.1 µM [inhibitor, single point] | 
CCC1(C)Cc2c(sc3nc(SCC(=O)O)[nH]c(=O)c23)CO1 (centres undefined) |  | inactive: 5.79%
Cc1ccc(C)c(Cn2c3ccccc3c3cnn(CC(=O)NC4CCC(C)CC4)c(=O)c32)c1 (centres undefined) |  | inactive: -1.69%
CN1CCN(c2ncc3nc(-c4ccc(F)cc4)c(=O)n(C4CC4)c3n2)CC1 | inconclusive: 39.8 µM [inhibitor, single point] | 
COC(=O)c1ccccc1NC(=O)c1ccc(COc2ccc3c(c2)CCC3)cc1 | inconclusive: 39.8 µM [inhibitor, single point] | 
COC(=O)CN1C(=O)CSc2ccc(S(=O)(=O)Nc3cccc(Br)c3)cc21 |  | inactive: -5.61%
COc1ccccc1N1CCN(C(=O)c2cc(-c3ccc(C)cc3)on2)CC1 | inconclusive: 25.1 µM [activator, single point] | 
COc1ccc(/C=C/C(=O)c2nc3ccccc3n2CC(=O)c2ccc(OC)cc2)cc1 | inconclusive: 31.6 µM [inhibitor, single point] | 
CCOc1ccc(Cn2nnc(C(=O)Nc3cccc(SC)c3)c2N)cc1 |  | inactive: 3.15%
CC(C)=CCc1c(O)cc(O)c2c1O[C@H](c1ccccc1)CC2=O |  | inactive: 8.41%
Cc1nn(-c2ccc(F)cc2)c(-n2cccc2)c1C(=O)N1CCN(c2ccccc2)CC1 | inconclusive: 39.8 µM [activator, single point] | 
CC(=O)OCC1OC(Oc2cc(OC(C)=O)c3c(=O)cc(-c4ccc(OC(C)=O)cc4)oc3c2)[C@@H](OC(C)=O)C(OC(C)=O)C1OC(C)=O (some centres undefined) | inconclusive: 20 µM [activator, single point] | 
Cc1cccc(C)c1Nc1nnc(SCC(=O)c2ccc(Br)s2)s1 | inconclusive: 31.6 µM [inhibitor, single point] | 
Cc1ccccc1C(=O)NC(CC(C)C)C(=O)OCc1cc(=O)n2cc(Br)ccc2n1 (centres undefined) | active: 15.8 µM | 
O=C(Cc1ccc(-n2cccc2)cc1)NC1CCCCC1 | inconclusive: 31.6 µM [inhibitor, single point] | 
CC1(C)NC(=O)N(CCOCCOc2ccc3ccccc3c2Br)C1=O | inconclusive: 31.6 µM [activator, single point] | 
COC(=O)c1ccccc1NC(=O)c1ccc(COc2cc(C)cc(C)c2)o1 | inconclusive: 39.8 µM [inhibitor, single point] | 
CNc1ccccc1C(=O)N1CCc2c([nH]c3ccccc23)C1=O |  | inactive: -13.6%
CCOC(=O)CSc1nnc2n(Cc3ccccc3)c(=O)c3c4c(sc3n12)CCC4 | inconclusive: 39.8 µM [activator, single point] | 
